Assay results published in the RNAGym collection of RNA variant scans (doi:10.1093/nar/gkz1192).
The source gives no read counts; variants with many changes may rest on few reads.

B1: CPEB3 Ribozyme (parent)
chain: UAACAGGGGGCCACAGCAGAAGCGUUCACGUCGCAGCCCCUGUCAGAUUCUGGUGAAUCUGCGAAUUCUGCUGUAUAUCUC

Variants of: B1
Experiment: self-cleavage, relative activity (ratio to wild type); higher = more cleavage; in vitro, sequencing
Summary of the method: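 For each CPEB3 ribozyme variant, relative activity is its cleaved/total read fraction divided by the unmutated ribozyme's. Barcoded error-prone PCR libraries were transcribed by T7 RNA polymerase (5 hours, 37°C) and held in DNase I for 15 min before an EDTA stop, with cleavage occurring throughout. Template-switching reverse transcription and Illumina sequencing were used to read the RNAs. A 5-read minimum applied, and results are the mean of three batches.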

Variant | self-cleavage
UAACAGAGGGCCACAGCAGAAGCGUCCACGUCGCAGCCCCUGUCAGAUUCUGGUGAGUCUGCGAAUUCCGCUGUAUAUCCC [G7A U26C A57G U69C U80C] | 0.05
UAACAGAGGGCCACAGCAGAAGCGUUCACGCCGCUGCCCCAGUCAGAUUCUGGUGAAUCUGCGAAUUCUGCUGUAUAUCUC [G7A U31C A35U U41A] | 0.14
UAACAGAGGGCCACAGCAGAAGCGUUCACGUCGCAGCCCCUGCCAGAUUCUGGUGAAUCAGCGAAUUCUGCUGUAUGUCUC [G7A U43C U60A A77G] | 0.05
UAACAGAGGGCCACAGCAGAAGCGAUCACGUAGCAGCCCCUGUCUGAUUCUGGUGCAUCUGCGAAUUCUGCUGUAUAUCUC [G7A U25A C32A A45U A56C] | 0.12
UAACAGAGGGCCACAGCAGAAGCGUUCACGCCGCAGCCCCUGUCAGAUCCUGGAGAAUCUGCGAAUUCUGCCGUAUAUCUC [G7A U31C U49C U54A U72C] | 0.04
UAACAGAGGGCCACAGCAGAAGCGUCCACGUCGCAGCACCUGUCAAAUUCUGGUGAAUCUGCGAAUUCUGCUGUAUAUCUC [G7A U26C C38A G46A] | 0.23
UAACAGAGGGCCACAGCAGAAGCGUUCACGUCGCAGCCCCCGUCAGACUCUAGUGAACCUGCGAAUUCUGCUGUAUAUCUC [G7A U41C U48C G52A U58C] | 0.07
UAACAGAGGCCCACAGCAGAAGCGUACACGUCGCAGCCCCUGUCAGAUUCUGGCGGAUCUGCAAAUUCUGCUGUAUAUCUC [G7A G10C U26A U54C A56G G63A] | 0.05
UAACAGAGGGCCACAGCAGAAGCGUUCAUGUCGCAGCCCCUGUCAGAUUCUGUUGAAACUGCGAAUUCUGCCGUAUACCUA [G7A C29U G53U U58A U72C U78C C81A] | 0.05
UAACAGAGUGCCACAGCAGAAGCGUUCACGUCGCAGCCCUUGUCGGAUUUUGGUGAAUCUGCGAAUUCUGCUGUAUAUCUC [G7A G9U C40U A45G C50U] | 0.05
UAACAGAGGGCCACAGCAGAAGCGUCCACCUCGCAGCCCCUGUCAGACUCUGGUGAAUCUGCGAAUUCUGCUGUAUAUCUC [G7A U26C G30C U48C] | 0.08
UAACAGAGGGCCACAGCAGAAGCGUUCACGUCGCAGCCCCUGCCAGAUUCUGGUGAGUCUGCGAAUUCUGCUGUAUAUCUC [G7A U43C A57G] | 0.44
UAACAGAGGGCCACAGCAGAAGCGUUCACGUCGCAGCCCCAGUCAGAUUCAGGUGAAUCUGCGAAUUCUGCUGUAUAUCUC [G7A U41A U51A] | 0.25
UAACAGAGGGCCACAGCAGAAUCGUUCACGUCGCAGCCCCUGUCAGAUUCCGGUGAAUCUGCGAAUCCUGCUGUAUAUCUC [G7A G22U U51C U67C] | 0.09
UAACAGAGGGCCACAGCAGAAGCGUUCACGUCGCAGCCCCAGUCAGAUUCUGGUGAAUCUGCGAAUUCUGCUGCAUACCUC [G7A U41A U74C U78C] | 0.06
UAACAGAGGGCCACAGCAGAAGCGUUCACGUCGCAGCCCCUGUCAGACUCUGGUGAACCAGCGGAUUCUGCUUUAUAUCUC [G7A U48C U58C U60A A64G G73U] | 0.05
UAACAGAGGGCCACAGCAGAAGGGUUCACGUCGCAGCCCCUGUCAGAUUCUGGUGAAUCCGCGAGUUCUGCUGAAUAUCUC [G7A C23G U60C A65G U74A] | 0.04

Variant | self-cleavage
UAACAGAGGGCCACAGCAGAAGCGUUCACGUCGCAGCCCCUGACAGAUUCUGGUGAAUCUGCGAGUUCCGCUGUAUAUCUC [G7A U43A A65G U69C] | 0.2
UAACAGAGGGCCACAGCAGAAGCGUUCACGUCGCAGACCCUGUCAGAUUCUGGUGAAUCUGCGAAUCCUGCUGUAUAUCUC [G7A C37A U67C] | 0.13
UAACAGAGGGCCACAGCAGAAGCGUACACGACGCAGCCCCUGUCAGGUUCUGGUGGAUCUGCGGAUUCUGCUGUAUAUCUC [G7A U26A U31A A47G A56G A64G] | 0.04
UAACAGAGGGCCACAGCAGAAGCGUUCACAUCGCAGCCCCUGUCAGAUUCUGGUGAAUCUGCGAAUUCUGCUGUAUUUCCC [G7A G30A A77U U80C] | 0.05
UAACAGAGGGCCACAGCAGAAGCGUUCACGUCACAGCCCCUGUUAGAUUCUGGUGAAUCUGCGAAUUCUGCUGCAUAUCAC [G7A G33A C44U U74C U80A] | 0.22
UAACAGAGGGCCACAGCAGAAGGGUUCACGUCGCAGCCCCUGUCAGAUUCUGGUGAAUCUGCGAAUUCUGCUGAAUAUCUC [G7A C23G U74A] | 0.34
UAACAGAGGGCCACAGCAGAAGCGUCCACGUCGCUGCCCCUGUCAGAUUCUGGUGGAUCUGCGAAUUCUGCAGUAUAUCUC [G7A U26C A35U A56G U72A] | 0.04
UAACAGAGGGCCACAGCAGAAGCGUGCGCGUCGCAGCCCCUGUCAGACUCUGGUGAAUCAGCGAAUUCUGCUGUAUAUCUC [G7A U26G A28G U48C U60A] | 0.05
UAACAGAGGGCCACAGCAGAAGCGCUCACGUCGCAGCCCCUGUCAGAUUCUGGUGAGUCUGCGAAUUCUGCUGUAUAUCUC [G7A U25C A57G] | 0.16
UAACAGAGGGCCACAGCAGAAGCGCUCACGUCGCAGCCCCAGUCAGAUUCUGGUGAAUCUGCGAACACUGCUGUAUAUCUC [G7A U25C U41A U66C U67A] | 0.07
UAACAGAGGGCCACAGCAGAAGCGUUUACGUCGCAGCCCCUGUCAGAUCCUGGUGAAUCUGCGAACUCUGCUGUAUAUCUC [G7A C27U U49C U66C] | 0.14
UAACAGAGGGCCACAGCAGAAGAGUUCACGUCGCAGCCCCUGUCUGAUUCUGGUGAAUCUGCGAAUUCUGCCGUAUAUCUC [G7A C23A A45U U72C] | 0.05
UAACAGAGGACCACAGCAGAAGCGUUCACGUCGCAGCCCCUGUCAGAUUCUGGUGAAUCUGCGAAUUCCGCUGUAUACCUC [G7A G10A U69C U78C] | 0.06
UAACAGAGGGCCACAGCAGAAGCGUUCACGUCGCAGCCCCAGUCAGAUUCUGGUUAGUCUGCGAAUUCUGCUGUAUAUCUC [G7A U41A G55U A57G] | 0.16
UAACAGAGGGCCACAGCAGAAGCGUUCACGUCGCAGCCCCUGUCAGAUUCUGGUGAAUUUGCGCAUUCUGCUGUAAAUCUC [G7A C59U A64C U76A] | 0.04
UAACAGAGAGCCACAGCAGAAGCGUCCACGUCGCAGCCCCUGUCAGAUUCUGGUGAAUCCGCGGAUUCUGCUGUAUAUCUC [G7A G9A U26C U60C A64G] | 0.11
UAACAGAGGGCCACAGCAGAAGCGUUCACGUUGCGGCCCCUGUCGGAUUCUGGUGAAUCUGCGAAUUCUGCAGUAUAUCUC [G7A C32U A35G A45G U72A] | 0.09
